# Source: the supplement of paper PMC12217912
# This is one part of the list. Sequences were assembled here from the parent chain. Inactive controls read about 0.05.
# B1: TEV protease; numbered along this chain (parent)
# chain: MGESLFKGPRDYNPISSSICHLTNESDGHTTSLYGIGFGPFIITNKHLFRRNNGTLVVQSLHGVFKVKDTTTLQQHLVDGRDMIIIRMPKDFPPFPQKLKFREPQREERICLVTTNFQTKSMSSMVSDTSCTFPSGDGIFWKHWIQTKDGQCGSPLVSTRDGFIVGIHSASNFTNTNNYFTSVPKNFMELLTNQEAQQWVSGWRLNADSVLWGGHKVFMVKPEEPFQPVKEATQL
# Variants of: B1
# Experiment: raw area under fraction-flipped curve 0-4 h after induction (AUC4h, not background-subtracted), DNA-recorder readout of cleavage of the substrate (dimensionless); higher = more cleavage of the substrate by the protease variant
# Settings: temperature: 34 °C; time window: 0-4 h after rhamnose induction
# Method: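 In vivo DNA recorder in E. coli TOP10(DE3) ΔrhaA at 34 °C. Each TEVp single-site mutant (parent TEVp 0) is paired with a single-site variant of the 7-mer TEVs (canonical ENLYFQ|S). The substrate sits between flexible linkers in a Bxb1-sfGFP-TEVs-SsrA fusion, so cleavage stabilises Bxb1 and speeds flipping of a recombination array, read by NGS. The value is the raw area under the fraction-flipped curve over 0-4 h after rhamnose induction (AUC4h), with ≥20 reads per time point. It is not background-subtracted; inactive controls average about 0.047.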
# 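Also: Bxb1 expression induced with 0.2% (w/v) L-rhamnose at OD600 near 0.5, cultures sampled hourly, flipped fraction per protease–substrate barcode pair counted by paired-end Illumina sequencing.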
Variant,area with substrate CNLYFQS,area with substrate HNLYFQS,area with substrate INLYFQS,area with substrate KNLYFQS,area with substrate MNLYFQS,area with substrate PNLYFQS,area with substrate RNLYFQS,area with substrate SNLYFQS,area with substrate TNLYFQS,area with substrate YNLYFQS,area with substrate FNLYFQS,area with substrate GNLYFQS,area with substrate LNLYFQS,area with substrate VNLYFQS,area with substrate WNLYFQS,area with substrate NNLYFQS,area with substrate QNLYFQS
S26Y,0.0751,0.0487,0.0599,0.0651,0.0623,0.0466,0.0689,0.0833,0.07,0.0792,,,,,,,
D27M,0.0782,0.0533,0.0637,,0.0499,0.0651,,0.0599,,,0.0647,0.0719,0.063,0.0623,0.0676,,
D27N,0.0586,0.0602,,0.0533,0.0416,0.0624,0.0548,0.0646,,0.0598,0.0437,0.0507,0.0624,,0.0472,,
T30E,0.078,,0.0744,,,0.0553,0.06,0.0607,0.0691,,,0.0521,0.0837,0.0678,0.0613,0.0505,
T30I,0.0714,0.0691,0.0492,0.0598,,0.0613,,,,,0.0506,,0.0733,,0.0611,,
T30P,0.057,0.0695,0.0455,0.056,0.0628,,,0.0747,0.0512,0.0586,0.0616,0.0529,,,0.0524,,0.063
Y34A,0.0558,,,0.0652,,,,0.05,,0.0571,,,0.0611,,0.0506,,
Y34R,0.0592,0.0613,,,0.0619,0.0669,,0.0664,,,,,0.0564,,0.0678,,0.0557
Y34S,0.0576,0.0574,,,,0.0621,,0.0595,0.0579,0.0507,0.0561,,0.0565,0.0703,0.054,0.0485,
Y34V,0.0512,,0.0393,,,0.0583,,0.0379,,,0.0566,,,0.0907,0.0512,,
I36K,0.0345,,0.0275,0.0456,,,,,,,0.0488,,0.0521,,0.0374,0.0322,
G37H,0.058,0.053,,0.0481,,,,0.0763,,,,,,,0.0583,0.0603,
G37Y,0.0591,0.0512,,0.0646,0.0476,0.0527,,,0.0552,,,0.0558,0.0465,,0.0456,,
F38H,0.0639,0.0561,0.0696,0.0605,0.0521,0.0673,,,0.0936,0.0685,,0.0571,0.0727,0.0473,0.0572,,
F38Q,0.0824,0.0601,0.0621,,0.0559,,,0.0681,0.0719,0.0539,,0.0638,0.0486,0.0463,0.051,0.0589,0.0638
P40V,0.066,0.0609,,0.0824,0.0772,,,0.0573,0.0687,0.0685,0.0505,0.0794,0.0638,0.067,0.0544,,
F41H,0.0723,0.0627,0.0609,0.0676,0.0773,0.0598,,0.0621,0.0628,0.0548,,,0.0436,0.0774,0.0564,0.0592,

Variant,area with substrate CNLYFQS,area with substrate HNLYFQS,area with substrate INLYFQS,area with substrate KNLYFQS,area with substrate MNLYFQS,area with substrate PNLYFQS,area with substrate RNLYFQS,area with substrate SNLYFQS,area with substrate TNLYFQS,area with substrate YNLYFQS,area with substrate FNLYFQS,area with substrate GNLYFQS,area with substrate LNLYFQS,area with substrate VNLYFQS,area with substrate WNLYFQS,area with substrate NNLYFQS,area with substrate QNLYFQS
I42K,0.0328,0.048,,0.0543,0.0337,0.0441,,0.0449,0.0514,0.0318,,,0.0434,0.0565,0.0475,0.0559,
I43Y,0.0369,0.0505,0.0512,,0.0551,0.0506,,,0.05,0.0508,,0.0511,,,0.044,,0.0739
H47Q,0.0621,0.0618,,0.0927,,0.0646,,0.0577,0.0577,,0.0517,0.0664,0.0616,0.0646,0.0653,,
F49W,0.069,0.0598,0.0495,0.0561,0.0723,0.061,,0.0714,0.0686,0.0606,,0.0435,0.0607,0.0652,0.055,0.0536,0.0545
R50G,0.0552,0.0514,0.0633,0.0766,,0.0597,,,0.0638,,0.0591,,0.0665,0.0763,0.0509,,
R50I,0.0681,,0.066,0.0573,,,,0.0707,0.0634,,,,,,,0.0587,
R50M,0.0827,0.0839,0.0627,0.0712,,,,,0.0677,0.0454,0.0603,,,0.0265,0.0623,,
R51P,0.083,0.0638,0.0741,,0.0608,0.0616,0.0565,,0.0598,,0.0558,0.0581,0.0666,,,,
R51W,0.13,0.0656,,0.0814,,0.0679,,,0.072,,,,,0.0717,0.0464,0.0768,
R51Y,0.0717,,,,0.0821,,,,0.0784,0.0294,,,0.0716,,,0.0568,
N52A,0.0632,0.0589,,0.087,,,,,,0.0552,0.0651,0.0621,,0.062,,0.0827,
N52E,0.0601,0.0557,0.0587,0.0659,0.0654,,,0.0571,,,,,,,0.0575,0.0537,
N52L,0.0571,,,0.061,0.0569,0.0455,,0.0637,0.0572,0.0558,0.0518,,0.0494,,0.0533,0.0494,
N53F,0.0477,0.083,0.0209,,0.0764,0.054,,,0.0643,0.0614,,,0.0735,0.0466,0.0512,0.0623,0.0608
N53W,0.057,0.0666,,0.0685,,,,0.0497,0.068,0.0509,,0.0577,0.0622,,0.051,0.0525,0.0322
N53Y,0.0713,,0.0742,0.0422,0.0619,0.0666,0.0557,0.0645,0.0571,,,0.0966,0.0601,0.0615,0.0661,0.06,
